{"source": "ChEMBL document CHEMBL4888484", "about": "“Replenishing the malaria drug discovery pipeline: Screening and hit evaluation of the MMV Hit Generation Library 1 (HGL1) against asexual blood stage Plasmodium falciparum ,using a nano luciferase reporter read-out” (2022)", "note": "The whole screen tested about 150,000 compounds, of which about 540 (0.36%) showed an effect of 50% or more. Some of the results follow."}
{"system": "Plasmodium falciparum", "experiment": "Primary screen in NF54 nanoGlo assay, in single point, at 2uM, 72h; a lower Z score goes with more inhibition", "assay_type": "functional, Erythrocyte", "details": "timepoint 72 hour", "units": {"% Inhibition": "%"}}
{"compound": "O=c1cc(-c2nc([C@H]3CCOC3)no2)[nH]c2ccccc12", "% Inhibition": -24, "Z score": 3.07}
{"compound": "Cc1noc([C@H]2CCN(Cc3ccco3)C[C@H]2NC(=O)C2CCOCC2)n1", "% Inhibition": -9, "Z score": 1.21}
{"compound": "CS(=O)(=O)N(CCN1C(=O)c2ccccc2C1=O)CCN1C(=O)c2ccccc2C1=O", "% Inhibition": -2, "Z score": 0.28}
{"compound": "Cc1cccc2[nH]cc(CCNC(=O)N[C@@H]3CCCC[C@H]3O)c12", "% Inhibition": -4, "Z score": 0.68}
{"compound": "Cc1cc(F)ccc1NS(=O)(=O)c1cc(-c2noc(C(=O)N3CCCCCC3)n2)ccc1C", "% Inhibition": -5, "Z score": 0.53}
{"compound": "CC(C)(C)OC(=O)NC1(C(=O)O)CC1c1ccccc1", "note": "(centres undefined)", "% Inhibition": -1, "Z score": 0.09}
{"compound": "COc1ccc(NC(=O)[C@@H]2Cn3cccc3C(=O)N2)cc1", "% Inhibition": -5, "Z score": 0.81}
{"compound": "Cc1ccccc1OC1CN(C(=O)CN2CCC[C@H](O)C2)C1", "% Inhibition": -12, "Z score": 1.06}
{"compound": "CC(=O)Nc1ccc(S(=O)(=O)n2cc3c(=O)n(C(C)C)c(=O)n(C(C)C)c3n2)cc1", "% Inhibition": -1, "Z score": 0.15}
{"compound": "Cc1cnc2c(c1)N(S(=O)(=O)c1ccc(C3CC3)cc1)CCO2", "% Inhibition": 5, "Z score": -0.98}
{"compound": "C[C@@H](Cc1ccc2ccccc2c1)NC(=O)Cn1cnnn1", "% Inhibition": -13, "Z score": 2.41}
{"compound": "Cc1nc(N)nc(C)c1CC(=O)N1CCC[C@H](CCc2c(F)cccc2F)C1", "% Inhibition": 3, "Z score": -0.37}
{"compound": "COc1ccc(CN2C(=O)COC[C@H]2C(=O)N2CCN(c3ccc(OC)cc3)CC2)cc1", "% Inhibition": -6, "Z score": 0.65}
{"compound": "Cc1ccc(-c2nn(Cc3ccc(Cl)cc3)c3nc(C)cc(C)c23)cc1", "% Inhibition": 0, "Z score": 0.01}
{"compound": "CN(C)C(=O)CNC1CCCCC1C(C)(C)C", "note": "(centres undefined)", "% Inhibition": -10, "Z score": 1.83}
{"compound": "Cc1cnc(C(=O)NC[C@@H](c2ccc(C)o2)N2CCCC2)c(C)c1", "% Inhibition": -1, "Z score": 0.09}
{"compound": "CC(=O)Nc1ccc(S(=O)(=O)N2C[C@@H](F)C[C@H]2C(=O)N2CCc3ccccc32)cc1", "% Inhibition": -10, "Z score": 1.31}
{"compound": "COc1cc(C(=O)NC2CCCCC2)ccc1OC1CCN(C(C)=O)CC1", "% Inhibition": -16, "Z score": 2.35}
{"compound": "CCOc1cccc(CNc2ccc(C(=O)N(C)OC)cc2)n1", "% Inhibition": 6, "Z score": -0.94}
{"compound": "Cc1cc(C(=O)N2C[C@H]3CC[C@@H](C2)N(CC2CC2)C3)n(C)n1", "% Inhibition": 3, "Z score": -0.5}
{"compound": "Cn1cc(S(=O)(=O)Nc2nc3ccccc3nc2N2CCNC(=O)C2)cn1", "% Inhibition": 1, "Z score": -0.19}
{"compound": "OC1CCCCC1N1CCc2sccc2C1", "note": "(centres undefined)", "% Inhibition": -21, "Z score": 2.66}
{"compound": "COc1ccc(C(=O)NCCNC(=O)c2nc(Cn3cc(Cl)cn3)no2)cc1OC", "% Inhibition": -10, "Z score": 1.05}
{"compound": "COc1cc(C(=O)O)ccc1-c1ccc(C(=O)N2CCCNCC2)cc1", "% Inhibition": -13, "Z score": 1.65}
{"compound": "Cc1onc(CC(=O)N2CC3(CCC3)C2C2CCCO2)c1C#N", "note": "(centres undefined)", "% Inhibition": 3, "Z score": -0.4}
{"compound": "Cc1ccc([C@H](C)Nc2ncnc3[nH]ncc23)o1", "% Inhibition": 0, "Z score": -0.02}
{"compound": "CC1CCC(NC(=O)N[C@H](C)C2CCCc3ccccc32)CS1(=O)=O", "note": "(some centres undefined)", "% Inhibition": -4, "Z score": 0.68}
{"compound": "Cc1ccc(CCC(=O)Nc2cccc(N(C)S(C)(=O)=O)c2)cc1", "% Inhibition": -23, "Z score": 2.11}
{"compound": "CC1=NN(Cc2ccccc2)C(=O)[C@H]1C(=O)Nc1nccs1", "% Inhibition": -2, "Z score": 0.22}
{"compound": "CC(C)C(=O)NC[C@H](C)Oc1ccc(F)cc1", "% Inhibition": 1, "Z score": -0.11}
{"compound": "O=C(O)c1ccc(COc2ccc(CN3CCOC4(CCCC4)C3)cc2)o1", "% Inhibition": 4, "Z score": -0.78}
{"compound": "O=C(CCc1nc(-c2ccc(S(=O)(=O)N3CCOCC3)cc2)no1)Nc1cccc(Cl)c1", "% Inhibition": -4, "Z score": 0.46}
{"compound": "NS(=O)(=O)c1ccc(CCNC2CCC(c3ccccc3)C2)cc1", "note": "(centres undefined)", "% Inhibition": -6, "Z score": 0.69}
{"compound": "Cc1noc(C)c1CN1CC2(CCN(C(=O)c3cnccn3)CC2)CC1=O", "% Inhibition": -11, "Z score": 1.69}
{"compound": "COCCc1ncnn1C1Cc2ccccc2C1", "% Inhibition": -18, "Z score": 1.97}
{"compound": "Cc1cc(-c2nc(C3CN4CCCCC4CO3)no2)n[nH]1", "note": "(centres undefined)", "% Inhibition": -13, "Z score": 1.82}
{"compound": "Cc1nc2nc(N)n(-c3ccccc3)[n+]2c(C)c1C", "% Inhibition": 3, "Z score": -0.37}
{"compound": "COc1cc(-c2cc(C3CC3)c(C#N)c(N)n2)cc(OC)c1OC", "% Inhibition": 0, "Z score": -0.03}
{"compound": "COc1ccccc1OCC[C@H]1CCN(C(=O)CC2CCCC2)C1", "% Inhibition": -11, "Z score": 2.07}
{"compound": "O=C1NCCOCCCN(C(=O)NCc2ccccc2)[C@H]2CCC[C@@H]12", "% Inhibition": -7, "Z score": 0.95}
{"compound": "O=C(NC1CC(c2cccc(Cl)c2)C1)N[C@H]1CC[C@@H](CO)C1", "note": "(some centres undefined)", "% Inhibition": -8, "Z score": 0.87}
{"compound": "CCC(=O)N1c2ncnn2C(c2ccc(C)cc2)CC1c1ccccc1", "note": "(centres undefined)", "% Inhibition": 3, "Z score": -0.41}
{"compound": "O=C(NC[C@H]1CCCN(C(=O)C2=CCCC2)C1)c1ccccc1Cl", "% Inhibition": -10, "Z score": 1.16}
{"compound": "COC(=O)[C@@H]1C[C@@H](N(C)C)CN1S(=O)(=O)c1ccc(NC(C)=O)cc1", "% Inhibition": -1, "Z score": 0.12}
{"compound": "CC1CN(c2ccc3nnnn3n2)CC(C)O1", "note": "(centres undefined)", "% Inhibition": -22, "Z score": 1.88}
{"compound": "Cc1ccc(C(=O)Nc2ccc(N3CCCN(C(=O)NC(C)(C)C)CC3)c(C(=O)N3CCCCC3)c2)cc1", "% Inhibition": 1, "Z score": -0.16}
{"compound": "Cc1ccc(C(=O)N(CCN2CCOCC2)CC(=O)Nc2nc(-c3ccccc3)cn2-c2ccc(C)cc2)cc1", "% Inhibition": -2, "Z score": 0.26}
{"compound": "Cc1cc2c(N3CC[C@H](N4CCOCC4)[C@H](CCC(=O)O)C3)ncnc2s1", "% Inhibition": -12, "Z score": 1.51}
{"compound": "COc1ccc(C(=O)N2CCN(c3ccc(=O)n(-c4ccc(C)cc4)n3)CC2)cc1", "% Inhibition": 21, "Z score": -2.44}
{"compound": "CC(C)C(=O)NCc1ccc(CNC(=O)C(C)C)cc1", "% Inhibition": -4, "Z score": 0.51}
{"compound": "C[C@@H](CC(=O)NC(CO)CO)c1ccccc1Br", "% Inhibition": 3, "Z score": -0.48}
{"compound": "CC(=O)N1CCN(C(=O)Cn2cnc3c2CC(C)C(C)C3)CC1", "note": "(centres undefined)", "% Inhibition": -9, "Z score": 1.6}
